SMILES strings stand for the structures. The list shows a part of the results. Many values rest on one well or one pass, so single values are uncertain.

The values that follow come from the supplement of paper PMC4604168 (melanoma cell lines).
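Also: cell number obtained by counting DAPI-stained nuclei in high-throughput microscope images with image analysis software, screen run in 1,536-well plates.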

The assay relates to SkMel28. As to the kind of experiment: cell count relative to DMSO control; melanoma cells; higher = more viable cells. The settings on record: library dose: low library concentration; 72 h.
For `Nc1ncn([C@H]2C[C@H](O)[C@@H](CO)O2)c(=O)n1` [decitabine] + CC(C)(C)c1cnc(CSc2cnc(NC(=O)C3CCNCC3)s2)o1 [SNS-032] (first compound 0.1 µM, partner dose 0.01 µM), the cell count came to 73%.

Take `Nc1ccn([C@@H]2O[C@H](CO)[C@@H](O)C2(F)F)c(=O)n1` [gemcitabine] + COc1ccc2c(c1)CCC1C2CCC2(C)C(NCCCCCCN3C(=O)C=CC3=O)CCC12 [U73122] (first compound 0.0004 µM, partner dose 0.4 µM): the cell count amounted to 117%.

Regarding `Nc1ncn([C@H]2C[C@H](O)[C@@H](CO)O2)c(=O)n1` [decitabine] + COc1cc2c(Oc3ccc4[nH]c(C)cc4c3F)ncnc2cc1OCCCN1CCCC1 [cediranib] (first compound 0.1 µM, partner dose 0.4 µM), the cell count was 94.2%.

On to `Nc1ncn([C@H]2C[C@H](O)[C@@H](CO)O2)c(=O)n1` [decitabine] + CN(C)S(=O)(=O)c1ccc2c(c1)/C(=C/c1cc3c([nH]1)CCCC3)C(=O)N2 [SU6656] (first compound 0.1 µM, partner dose 0.4 µM), for which the cell count worked out at 89.5%.

Molecule `CC(=O)O[C@@]12CO[C@@H]1C[C@H](O)[C@@]1(C)C(=O)[C@H](O)C3=C(C)[C@@H](OC(=O)[C@H](O)[C@@H](NC(=O)OC(C)(C)C)c4ccccc4)C[C@@](O)([C@@H](OC(=O)c4ccccc4)[C@H]21)C3(C)C` [Docetaxel] + COc1cc(N2CCC(N3CCN(C)CC3)CC2)ccc1Nc1ncc(Cl)c(Nc2ccccc2S(=O)(=O)C(C)C)n1 [NVP-TAE684] (first compound 0.0001 µM, partner dose 0.08 µM) gave a cell count of 35.2%.

Turning to `Nc1nc(F)nc2c1ncn2[C@@H]1O[C@H](CO)[C@@H](O)[C@@H]1O` [fludarabine] + O=C(Nc1cccc(Cl)c1)Nc1ncc(CCNc2ncnc3ccsc23)s1 [SNS314] (first compound 0.2 µM, partner dose 0.0008 µM), the cell count was determined as 78.6%.

With `CC(=O)O[C@@]12CO[C@@H]1C[C@H](O)[C@@]1(C)C(=O)[C@H](O)C3=C(C)[C@@H](OC(=O)[C@H](O)[C@@H](NC(=O)OC(C)(C)C)c4ccccc4)C[C@@](O)([C@@H](OC(=O)c4ccccc4)[C@H]21)C3(C)C` [Docetaxel] + CC(C)CCN1c2nc(Nc3cc(F)c(O)c(F)c3)ncc2N(C)C(=O)C1C [BID1870] (first compound 0.0001 µM, partner dose 0.2 µM), the cell count stood at 46.5%.

Turning to `Nc1ncn([C@H]2C[C@H](O)[C@@H](CO)O2)c(=O)n1` [decitabine] + COc1ccc(-c2ccc3c(N4CCOCC4)nc(N4C[C@@H](C)O[C@@H](C)C4)nc3n2)cc1CO [KU0063794] (first compound 0.1 µM, partner dose 0.02 µM), the cell count stood at 66.3%.

Molecule `Nc1ccn([C@@H]2O[C@H](CO)[C@@H](O)C2(F)F)c(=O)n1` [gemcitabine] + CC1(C)NC(=O)N(c2ccc([N+](=O)[O-])c(C(F)(F)F)c2)C1=O [nilutamide] (first compound 0.0004 µM, partner dose 1 µM) showed a cell count of 99.9%.

In the case of `CC(=O)c1c(C)c2cnc(Nc3ccc(N4CCNCC4)cn3)nc2n(C2CCCC2)c1=O` [palbociclib] + CC(C)(C)c1cnc(CSc2cnc(NC(=O)C3CCNCC3)s2)o1 [SNS-032] (first compound 0.04 µM, partner dose 0.01 µM), the cell count is 71.7%.

`Nc1ccn([C@@H]2O[C@H](CO)[C@@H](O)C2(F)F)c(=O)n1` [gemcitabine] + Cc1ccc(NC(=O)c2cccc(N(C)C)c2)cc1NC(=O)c1ccc(O)cc1 [ZM336372] (first compound 0.0004 µM, partner dose 2 µM): the cell count was determined as 115%.
